Laboratory results reported in patent US7423058B2, “Inhibitors of hepatitis C virus NS3 protease” (Schering Corporation, priority 2004, dated 2008).

What follows are compounds tested against Recombinant heterodimeric HCV NS3/NS4A protease (strain 1a) (Hepatitis C virus genotype 1a, UniProt P27958) (assay: Spectrophotometric assay for HCV protease inhibitory activity (chromogenic ester substrates)). Conditions: Table 1: Ketones; read-out: Ki* Range.
Assay type: biochemical

SMILES	Ki [nM]
CC(C)[C@H](NC(=O)N[C@H](C(=O)N1C[C@H]2[C@@H]([C@H]1C(=O)NC(CC1CC1)C(=O)C(N)=O)C2(C)C)C(C)(C)C)C(=O)c1nccs1 (some centres unmarked) [compound 4021]	< 75
CC(C)(C)C(=O)CC1(NC(=O)N[C@H](C(=O)N2C[C@H]3[C@@H]([C@H]2C(=O)NC(CC2CCC2)C(=O)C(N)=O)C3(C)C)C(C)(C)C)CCCCC1 (some centres unmarked) [compound 4061]	< 75
CCCC(NC(=O)[C@@H]1[C@@H]2[C@H](CN1C(=O)[C@@H](NC(=O)N[C@H](C(=O)C(C)C)C(C)C)C(C)(C)C)C2(C)C)C(=O)C(=O)NCC(F)(F)F (some centres unmarked) [compound 4198]	76 to 250
CC(C)[C@H](NC(=O)N[C@H](C(=O)N1C[C@H]2[C@@H]([C@H]1C(=O)NC(CC1CC1)C(=O)C(N)=O)C2(C)C)C(C)(C)C)C(=O)c1ccco1 (some centres unmarked) [compound 4069]	< 75
C#CCCC(NC(=O)[C@@H]1[C@@H]2[C@H](CN1C(=O)[C@@H](NC(=O)N[C@H](C(=O)c1ccccn1)C1CCCCC1)C(C)(C)C)C2(C)C)C(=O)C(=O)NCC=C (some centres unmarked) [compound 4041]	< 75
CC1(C)[C@@H]2[C@@H](C(=O)NC(CC3CC3)C(=O)C(N)=O)N(C(=O)[C@@H](NC(=O)N[C@H](C(=O)C3CC3)C3CCCCC3)C3CCCCC3)C[C@@H]21 (some centres unmarked) [compound 4040]	< 75
CC(C)(C)C(=O)CC1(NC(=O)N[C@H](C(=O)N2C[C@H]3[C@@H]([C@H]2C(=O)NC(CC2CC2)C(=O)C(N)=O)C3(C)C)C(C)(C)C)CCCCC1 (some centres unmarked) [compound 4043]	< 75
CCCC(NC(=O)[C@@H]1[C@@H]2[C@H](CN1C(=O)[C@@H](NC(=O)N[C@H](C(=O)C1CC1)C(C)C)C(C)(C)C)C2(C)C)C(=O)C(=O)NCC (some centres unmarked) [compound 4192]	76 to 250
COc1ccc(C(=O)[C@@H](NC(=O)N[C@H](C(=O)N2C[C@H]3[C@@H]([C@H]2C(=O)NC(CC2CC2)C(=O)C(N)=O)C3(C)C)C(C)(C)C)C(C)C)cc1 (some centres unmarked) [compound 4012]	< 75
CC(C)[C@H](NC(=O)N[C@H](C(=O)N1C[C@H]2[C@@H]([C@H]1C(=O)NC(CCC(F)(F)F)C(=O)C(N)=O)C2(C)C)C(C)(C)C)C(=O)c1ccccc1 (some centres unmarked) [compound 4109]	< 75
C=CCNC(=O)C(=O)C(CCC)NC(=O)[C@@H]1[C@@H]2[C@H](CN1C(=O)[C@@H](NC(=O)N[C@H](C(=O)c1ccccn1)C(C)C)C(C)(C)C)C2(C)C (some centres unmarked) [compound 4101]	< 75
C=CCNC(=O)C(=O)C(CCC)NC(=O)[C@@H]1[C@@H]2[C@H](CN1C(=O)[C@@H](NC(=O)NC(C(=O)c1ccccc1)C(C)(C)C)C(C)(C)C)C2(C)C (some centres unmarked) [compound 4141]	< 75
CN(C)c1ccc(C(=O)[C@@H](NC(=O)N[C@H](C(=O)N2C[C@H]3[C@@H]([C@H]2C(=O)NC(CC2CC2)C(=O)C(N)=O)C3(C)C)C(C)(C)C)C2CCCCC2)cc1 (some centres unmarked) [compound 4090]	< 75
C=CCNC(=O)C(=O)C(CCC(F)(F)F)NC(=O)[C@@H]1[C@@H]2[C@H](CN1C(=O)[C@@H](NC(=O)N[C@H](C(=O)C1CC1)C(C)C)C1CCCCC1)C2(C)C (some centres unmarked) [compound 4086]	< 75
CC(C)[C@H](NC(=O)N[C@H](C(=O)N1CC2OC(C)(C)CC2[C@H]1C(=O)NC(CC1CC1)C(=O)C(N)=O)C1CCCCC1)C(=O)c1nccs1 (some centres unmarked) [compound 4174]	76 to 250
CC(C)[C@H](NC(=O)N[C@H](C(=O)N1C[C@H]2[C@@H]([C@H]1C(=O)NC(CC1CC1)C(=O)C(N)=O)C2(C)C)C(C)(C)C)C(=O)c1ncco1 (some centres unmarked) [compound 4098]	< 75
CC(C)[C@H](NC(=O)N[C@H](C(=O)N1C[C@H]2[C@@H]([C@H]1C(=O)NC(CC1CC1)C(=O)C(N)=O)C2(C)C)C(C)(C)C)C(=O)c1ccc(S(C)(=O)=O)cc1 (some centres unmarked) [compound 4128]	< 75
C=CCNC(=O)C(=O)C(CCC)NC(=O)[C@@H]1[C@@H]2[C@H](CN1C(=O)[C@@H](NC(=O)N[C@H](C(=O)c1nc(C)cs1)C(C)C)C(C)(C)C)C2(C)C (some centres unmarked) [compound 4145]	< 75

Same assay, conditions: Table 3, Esters; read-out: Ki* Range

SMILES	Ki [nM]
CC(C)[C@H](NC(=O)N[C@H](C(=O)OC(C)(C)C)C(C)(C)C)C(=O)N1C[C@H]2[C@@H]([C@H]1C(=O)NC(CC1CC1)C(=O)C(N)=O)C2(C)C (some centres unmarked) [compound 4412]	< 75
CC1(C)[C@@H]2[C@@H](C(=O)NC(CC3CC3)C(=O)C(N)=O)N(C(=O)[C@@H](NC(=O)NC3(C(=O)OCc4ccccc4)CCCC3)C3CCCCC3)C[C@@H]21 (some centres unmarked) [compound 4470]	< 75
CC1(C)[C@@H]2[C@@H](C(=O)NC(CC3CC3)C(=O)C(N)=O)N(C(=O)[C@@H](NC(=O)NC3(C(=O)OCc4ccccc4)CCCCC3)C3CCCCC3)C[C@@H]21 (some centres unmarked) [compound 4541]	76 to 250
CC(C)OC(=O)[C@@H](NC(=O)N[C@H](C(=O)N1C[C@H]2[C@@H]([C@H]1C(=O)NC(CC1CC1)C(=O)C(N)=O)C2(C)C)C(C)(C)C)C1CCC1 (some centres unmarked) [compound 4329]	< 75
CC(C)(C)OC(=O)C(C)(C)NC(=O)N[C@H](C(=O)N1C[C@H]2[C@@H]([C@H]1C(=O)NC(CC1CC1)C(=O)C(N)=O)C2(Cl)Cl)C(C)(C)C (some centres unmarked) [compound 4437]	< 75
CC(C)(C)[C@H](NC(=O)N[C@H](C(=O)N1C[C@H]2[C@@H]([C@H]1C(=O)NC(CC1CC1)C(=O)C(N)=O)C2(C)C)C(C)(C)C)C(=O)OCc1ccc(F)cc1 (some centres unmarked) [compound 4351]	< 75
CC(C)(C)C[C@H](NC(=O)N[C@H](C(=O)N1C[C@H]2[C@@H]([C@H]1C(=O)NC(CC1CC1)C(=O)C(N)=O)C2(C)C)C(C)(C)C)C(=O)OCc1ccsc1 (some centres unmarked) [compound 4450]	< 75
CCCCC(NC(=O)[C@@H]1[C@@H]2[C@H](CN1C(=O)[C@@H](NC(=O)N[C@H](C(=O)OC(C)(C)C)C(C)(C)C)C1CCCCC1)C2(C)C)C(=O)C(=O)NC (some centres unmarked) [compound 4415]	< 75
C=CCNC(=O)C(=O)C(CCC)NC(=O)[C@@H]1[C@@H]2[C@H](CN1C(=O)[C@@H](NC(=O)N[C@H](C(=O)OCc1ccc(OC)cc1)C(C)(C)C)C(C)(C)C)C2(C)C (some centres unmarked) [compound 4427]	< 75
CC(C)(C)OC(=O)[C@@H](NC(=O)N[C@H](C(=O)N1C[C@H]2[C@@H]([C@H]1C(=O)NC(CC1CC1)C(=O)C(N)=O)C2(Cl)Cl)C(C)(C)C)C(C)(C)C (some centres unmarked) [compound 4335]	< 75
CC(C)CC(NC(=O)N[C@H](C(=O)N1C[C@H]2[C@@H]([C@H]1C(=O)NC(CC1CC1)C(=O)C(N)=O)C2(C)C)C1CCCCC1)C(=O)OCc1ccccc1 (some centres unmarked) [compound 4625]	76 to 250
CC(C)[C@H](NC(=O)N[C@H](C(=O)N1C[C@H]2[C@@H]([C@H]1C(=O)NC(CC1CCC1)C(=O)C(N)=O)C2(C)C)C(C)(C)C)C(=O)OCC1CC1 (some centres unmarked) [compound 4332]	< 75
CC(C)(C)[C@H](NC(=O)N[C@H](C(=O)N1C[C@H]2[C@@H]([C@H]1C(=O)NC(CC1CCC1)C(=O)C(N)=O)C2(C)C)C(C)(C)C)C(=O)OC1CCOC1 (some centres unmarked) [compound 4383]	< 75
CC[C@H](C)[C@H](NC(=O)N[C@H](C(=O)N1C[C@H]2[C@@H]([C@H]1C(=O)NC(CC1CC1)C(=O)C(N)=O)C2(C)C)C1CCCCC1)C(=O)OCc1ccccc1 (some centres unmarked) [compound 4589]	76 to 250
C=CCNC(=O)C(=O)C(CCCC)NC(=O)[C@@H]1[C@H]2CC(C)(C)O[C@H]2CN1C(=O)[C@@H](NC(=O)N[C@H](C(=O)OC(C)(C)C)C(C)(C)C)C1CCCCC1 (some centres unmarked) [compound 4590]	76 to 250
CCCCC(NC(=O)[C@@H]1[C@@H]2[C@H](CN1C(=O)[C@@H](NC(=O)N[C@H](C(=O)OC(C)(C)C)C(C)(C)C)C1CCCCC1)C2(C)C)C(=O)C(=O)NCC1CC1 (some centres unmarked) [compound 4612]	76 to 250
C#CCCCC(NC(=O)[C@@H]1[C@@H]2[C@H](CN1C(=O)[C@@H](NC(=O)N[C@H](C(=O)OC(C)(C)C)C(C)(C)C)C(C)(C)C)C2(C)C)C(=O)C(=O)NCC=C (some centres unmarked) [compound 4649]	> 250
CC(C)(C)OC(=O)[C@H](NC(=O)N[C@H](C(=O)N1C[C@H](Cl)C[C@H]1C(=O)NC(CC1CCC1)C(=O)C(N)=O)C(C)(C)C)C(C)(C)C (some centres unmarked) [compound 4572]	76 to 250
CC(C)(C)COC(=O)[C@H](NC(=O)N[C@H](C(=O)N1C[C@H]2[C@@H]([C@H]1C(=O)NC(CC1CCC1)C(=O)C(N)=O)C2(C)C)C(C)(C)C)C(C)(C)C (some centres unmarked) [compound 4373]	< 75
C=CCNC(=O)C(=O)C(CCC(F)(F)F)NC(=O)[C@@H]1[C@@H]2[C@H](CN1C(=O)[C@@H](NC(=O)N[C@H](C(=O)OC(C1CC1)C1CC1)C(C)C)C(C)(C)C)C2(C)C (some centres unmarked) [compound 4493]	< 75
CC(C)(C)OC(=O)[C@@H](NC(=O)N[C@H](C(=O)N1C[C@H]2[C@@H]([C@H]1C(=O)NC(CC1CCC1)C(=O)C(N)=O)C2(C)C)C1Cc2ccccc2C1)C(C)(C)C (some centres unmarked) [compound 4374]	< 75
CC(C)(C)OC(=O)[C@@H](NC(=O)N[C@H](C(=O)N1C[C@H]2[C@@H]([C@H]1C(=O)NC(CC1CC1)C(=O)C(N)=O)C2(C)C)C1(C)CCCC1)C(C)(C)C (some centres unmarked) [compound 4302]	< 75
C=CCNC(=O)C(=O)C(CCC)NC(=O)[C@@H]1[C@@H]2[C@H](CN1C(=O)[C@@H](NC(=O)N[C@H](C(=O)OC(C)(C)C)C1CCCCC1)C(C)(C)C)C2(C)C (some centres unmarked) [compound 4370]	< 75
CC(C)[C@H](NC(=O)N[C@H](C(=O)N1C[C@H]2[C@@H]([C@H]1C(=O)NC(CC1CC1)C(=O)C(N)=O)C2(C)C)C(C)(C)C)C(=O)OC(C)(C)C (some centres unmarked) [compound 4303]	< 75

Same assay, conditions: Table 6; read-out: Ki* range

SMILES	Ki [nM]
CC1(C)[C@@H]2[C@@H](C(=O)NC(CC3CC3)C(=O)C(N)=O)N(C(=O)[C@@H](NC(=O)NC3(Cc4ccsc4)CCCCC3)C3CCCCC3)C[C@@H]21 (some centres unmarked) [compound 4940]	< 75
CC(C)(C)[C@H](NC(=O)NC1(Cc2ccccc2)CCC(F)(F)CC1)C(=O)N1C[C@H]2[C@@H]([C@H]1C(=O)NC(CC1CC1)C(=O)C(N)=O)C2(C)C (some centres unmarked) [compound 4942]	< 75
CC(C)[C@@H](Cc1ccccc1)NC(=O)N[C@H](C(=O)N1C[C@H]2[C@@H]([C@H]1C(=O)NC(CC1CC1)C(=O)C(N)=O)C2(C)C)C(C)(C)C (some centres unmarked) [compound 4953]	< 75
CC(C)(C)[C@H](NC(=O)NC1(Cc2ccccc2)CCSCC1)C(=O)N1C[C@H]2[C@@H]([C@H]1C(=O)NC(CC1CC1)C(=O)C(N)=O)C2(C)C (some centres unmarked) [compound 4951]	< 75
C=CCNC(=O)C(=O)C(CCC)NC(=O)[C@@H]1[C@@H]2[C@H](CN1C(=O)[C@@H](NC(=O)NC1(Cc3nccs3)CCCCC1)C(C)(C)C)C2(C)C (some centres unmarked) [compound 4959]	< 75
